# For part of these data: Most of the hits are listed elsewhere, so they are rarer here than in the full data. Results filed as inconclusive are left out. The source holds several records for some structures; these can differ, active in one and inactive in another. The list shows a part of the results, in another mix than the full data. Calls of active or inactive are those of the source. The calls were made as follows, unless noted: active = hit-call score of the fitted dose curve at least 0.9, where 1 is the maximum; inconclusive = response in the unintended direction; inactive = score below 0.9.
# Tests used:
# [1] = target: Retinoic acid receptor RXR-alpha (Homo sapiens) (UniProt P19793); assay: ATG_RXRa_TRANS: Attagene TRANS-FACTORIAL HepG2 Assay for human Retinoid X Receptor alpha (RXRa) (AID 2283012)
# How it was run: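 Cells (HepG2) carried transiently transfected GAL4-responsive reporter units. Following a 24 h chemical incubation, reporter mRNA induction was read via RT-PCR fragment analysis; DMSO served as negative control and baseline.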
# [2] = TOX21_p53_BLA_p4_viability: Viability Assessment in the Tox21 HCT-116 p53 Agonism Beta-lactamase Assay, Phase 4 (AID 2283597);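 also: hits lower the luminescence signal meaning cytotoxicity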
# How it was run: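 HCT116 p53-bla cells (4000/well) rested 5 h at 37C, then received compounds in DMSO (217-fold dilution) for 16 h at 37C, 5% CO2. CellTiter-Glo was added after the CCF4-AM read, and luminescence was read after 30 min at room temperature.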
# [3] = target: human Retinoid X Receptor beta (RXRb), RXRB (gene 6257) (UniProt P28702); assay: ATG_RXRb_TRANS: Attagene TRANS-FACTORIAL HepG2 Assay for human Retinoid X Receptor beta (RXRb) (AID 2283013)
# How it was run: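 Multiplexed TRANS reporter assay in HepG2; 24 h dosing; reporter mRNA by RT-PCR/CE fluorescence; gain-of-signal relative to DMSO.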
# [4] = target: human Retinoic Acid Receptor gamma (RARg), RARG (gene 5916) (UniProt P13631); assay: ATG_RARg_TRANS: Attagene TRANS-FACTORIAL HepG2 Assay for human Retinoic Acid Receptor gamma (RARg) (AID 2283009)
# How it was run: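 HepG2, RARg-GAL4 TRANS system, 24 h exposure; reporter mRNA by RT-PCR + CE fluorescence; increase over DMSO.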
# [5] = BSK_CASM3C_Proliferation: Cell Proliferation Assessment in the BioMAP Diversity Plus: CASM3C Assay (AID 2283047; active = hit-call score of the fitted dose curve at least 0.9, where 1 is the maximum; inactive = score below 0.9;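 also: sulforhodamine B total protein stain as relative cell number at 560 nm; sub-confluent cells exposed 48 h before staining; fitted both ways against DMSO so gain or loss of cell number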); conditions: primary human coronary artery smooth muscle cells
# [6] = target: Estrogen receptor beta (Homo sapiens) (UniProt Q92731); assay: OT_ER_ERbERb_0480: Odyssey Thera (OT) 8-hour HEK293T Protein-Complementation Assay for Estrogen Receptor-beta/-beta Homodimer (AID 2283357);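 also: active means signal gain over DMSO baseline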
# How it was run: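 Fluorescence intensity, nuclear for agonists and nuclear plus cytoplasmic for antagonists, was quantified by laser scanning cytometry versus vehicle after 8 h treatment. The cells were HEK293T stably carrying ER beta LBD fragment-complementation partners.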
# [7] = read-out: catalase (CAT), CAT (gene 847); assay: LTEA_HepaRG_CAT: Life Technologies and Expression Analysis (LTEA) Assay for catalase (CAT) using HepaRG (AID 2283452; active = hit-call score of the fitted dose curve at least 0.9, where 1 is the maximum; inactive = score below 0.9); conditions: actives raise or lower the signal; mRNA level, 48 h
# How it was run: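 HepaRG cells in serum-free induction medium, 0.5% DMSO vehicle, exposed 48 h in duplicate over 8 half-log concentrations from 100 uM. CAT mRNA measured by qRT-PCR, normalized to ACTB, GAPDH, POLR2A; bidirectional fit versus DMSO.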
# [8] = tested on: chicken Androgen Receptor (AR), gene 422165; assay: ATG_chAR_XSP2: Attagene TRANS-FACTORIAL Multi-Species (XSP2) HepG2 Assay for chicken Androgen Receptor (AR) (AID 2283819);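 also: GAL4-driven reporter transcript measured by RT-PCR then capillary electrophoresis; hits raise reporter mRNA above DMSO so potency is for activation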
# How it was run: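 HepG2 cells transiently transfected with chicken AR–GAL4 chimeric reporter constructs, stimulated with 3 nM 6-alpha-fluorotestosterone plus 1.5 nM norgestrel, dosed 24 h. Reporter mRNA quantified by RT-PCR and capillary electrophoresis; gain of signal fitted versus DMSO.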
# [9] = tested on: frog Estrogen Receptor (ER), gene 398734; assay: ATG_frER1_XSP2: Attagene TRANS-FACTORIAL Multi-Species (XSP2) HepG2 Assay for frog Estrogen Receptor (ER) (AID 2283821);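 also: hits raise reporter mRNA above DMSO baseline so potency means agonist or activator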
# How it was run: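 HepG2 cells transiently transfected with GAL4-UAS reporter units expressing a chimeric frog ER-Gal4 protein; 24 h exposure. Reporter mRNA quantified by RT-PCR, fluorescent labelling and capillary electrophoresis; gain of signal fitted against DMSO baseline.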
# [10] = target: Nuclear receptor subfamily 1 group I member 2 (Homo sapiens) (UniProt O75469); assay: ATG_PXR_TRANS: Attagene TRANS-FACTORIAL HepG2 Assay for human Pregnane X Receptor (PXR) (AID 2283008)
# How it was run: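 Measures mRNA induction of a GAL4-UAS-driven reporter in human HepG2 cells transiently expressing PXR fused to Gal4, following 24 h treatment. DMSO served as negative control and baseline.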
smiles,measurement,setting,value
CCOC(=O)[C@@H](C)Oc1ccc(Oc2nc3ccc(Cl)cc3o2)cc1,outcome,[1],inactive
same,outcome,[2],inactive
Cc1[nH]c(=O)c(C#N)cc1-c1ccncc1,outcome,[3],inactive
CCCCCCCCCCO[C@@H]1O[C@H](CO)[C@@H](O)[C@H](O)[C@H]1O,outcome,[1],inactive
C#C[C@]1(O)CC[C@H]2[C@@H]3CCC4=CC(=O)CC[C@@H]4[C@H]3CC[C@@]21C,outcome,[4],inactive
same,AC50,[5],active: 14.5 µM
same,outcome,[6],inactive
same,outcome,[7],inactive
same,AC50,[8],active: 23.8 µM
same,AC50,[9],active: 0.121 µM
C=CC(C)(CCC=C(C)C)OC(=O)c1ccccc1 (stereo not given),AC50,[3],active: 31.2 µM
CCCCCC/C=C/CCCCCCCC(=O)O,AC50,[3],active: 60.4 µM
CC(=O)C(C)=CC1C(C)=CCCC1(C)C (stereo not given),AC50,[10],active: 27 µM
Clc1cc(Cl)c(Cl)cc1Cl,AC50,[3],active: 61.4 µM
Cc1ccc2sc3cccc(C)c3c2c1,outcome,[10],inactive

# From PubChem BioAssay (EPA / NIEHS)
